In the RNAGym collection of RNA variant scans (doi:10.1073/pnas.2313332121):
This sample is rich in variants without activity.

B1: TPR 5TU (parent)
chain: GGAUCUUCUCGAUCUAACAAAAAAGACAAAUCUGCCACAAAGCUUGAGAGCAUCUUCGGAUGCAGAGGCGGCAGCCUUCGGUGGCGCGAUAGCGCCAACGUUCUCAACUAUGACACGCAAAACGCGUGCUCCGUUGAAUGGAGUUUAUCAUG

Variants of: B1
Assay: polymerase ribozyme fitness, log enrichment relative to wild type (log ratio); higher = more active; in vitro selection for triplet polymerase activity
How it was run: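 For each subunit of a heterodimeric triplet polymerase ribozyme, a mutant library was built by PCR and transcribed, then taken through a single in vitro selection round in triplicate. Selection involved annealing to a biotinylated primer, the partner subunit and triplets, incubation frozen at −7 °C, gel excision of extended constructs, capture on streptavidin beads and RT-PCR. Genotypes were retained after Illumina sequencing of inputs and outputs only with ≥10 input reads and ≥1 read in each output. Fitness is defined as the logarithm of a genotype's enrichment relative to wild-type enrichment, using inverse-variance-weighted averages across replicates, with the logarithm taken to base 2.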

Polymerase ribozyme fitness (log ratio), ≤ -4.2:
GGAUCUUCUCGAUCUAACAAAAAAGACAAACCUGCCACAAAGCUUGAGAGCAUCUUCGGAUGUAGAGGCCGCAGCCUUCGGUGGCACGAUAGCGCCAACGUUCUCAACUAUGACACGCAAAACGCGUGCUCCGAUGAAUGGAGUUUAUCAUG
GGAUCUUCUCGAUCUAACAAAAAAGACAAACCUGCCACAAAGCUUGAGAGCAUCUUCGGAUGCAGAGGCGGCAGCCUUCGGUGGCGAGAUAGCGCCAACGUGCUCAACUAUGACACGCAAAACGCGUGCUCCGUUGAAUGGAGUUUAUCAUG
GGAUCUUCUCGAUCUAACAAAAAAGACAAACCUGCCACAAAGCUUGAGAGCAUCUUCGGAUGCAGAGGCGGCAGCCUUCGGUGGCGCGAUAGGGCAAACGUUCUCAACUAUGACACGCAAAACGCGUGCUCCCUUGAAUGGAGUUUAUCAUG
GGAUCUUCUCGAUCUAACAAAAAAGACAAACCUGCCACAAAGCUUGAGAGCAUCUUCGGAUGCAGAGGCGGCAGCCUUCGGUGGCGCGAUAGUGCCAACGUUCUCAACUGUGACACGCAAAACGCGUGCUCCGUUGAAUGGAGUUUAUCAUG
GGAUCUUCUCGAUCUAACAAAAAAGACAAACCUGCCACAAAGCUUGAGAGCAUCUUCGGAUGCAGAGGCGGCAGCCUUCGGUGGCGCGAUAGCGCCAACGUUAUCAAUUAUGACACGCAAAACGCGUGCUCCGUUGAAUGGAGUUUAUCAUG
GGAUCUUCUCGAUCUAACAAAAAAGACAAACCUGCCACAAAGCUUGAGAGCAUCUUCGGAUGCAGAGCCGGCAGCCUUCGGUGGCGCGAUACCGGCAUCGUUCUCAACUAUGACAAGCAAAACGCGUGCUCCGUUGUAUGGAGUUUAUCAUG
GGAUCUUCUCGAUCUAACAAAAAAGACAAACCUGCCACAAAGCUUGAGAGCAUCUUCGGAUGCAGAGGCGGCAACCUUCGGUGGGGCGAUAGCGCCAAUGUUCUCAACUAUGACACGCAAAACGCGUGCUCCGUUGAAUGGAGUUUAUCAUG
GGAUCUUCUCGAUCUAACAAAAAAGACAAACCAGCCACAAAGCUUGAGAGCAUCUUCGGAUGCAGAGGCGGCAGCCUUCGGUGGCGCGAUAGCGCCAGCGUUCUCAACUAUGACACGCAAAACGCGUGCUCCGUUGAAUGGAGUUUAUCAUG
GGAUCUUCUCGAUCUAACAAAAAAGACAAACCUGCCACAAAGCGUGAGAGGAUCUUCGGAUGCAGAGGCGGCAGCCUUCGGUAGCGCGAUAGCGCCAACGUUCUCGACUAUGACACGCAAAACGCGUGCUCCGUUGAAUAGAGUUUAUCAUG
GGAUCUUCUCGAUCUAACAAAAAAGACAAACCUGCCACAAAGCUUGAGAGCAUCUUCGGAAGCAGAGGCGGCAGCCUUCGGUGGCGCGAUAGUGCAAACGUUCUCAUCUAUGACACGCAAAACGCGUGCUCCGUUGAAUGGAGUUUAUCAUG
GGAUCUUCUCGAUCUAACAAAAAAGACAAACCUGCCACAAAGCUUGAGAGCAUCUUCGGAGGCAGAGUCGGCAGCCUUCGGUGGCGCGAUAGCACCUACGUUCUCAACUAUGACACGCAAAACGCGUUCUCCGUUGAAUGGAGUUUAUCAGG
GGAUCUUCUCGAUCUAACAAAAAAGACAAAGCUGCCACACAGCUUGAGAGCAUCUUUGGAUGCAGAGGCGGCAGCCUUCGGUGGCGCGAUAGCGCCAACGUUCUCAACUAUGACACGCAUAACGCGUGCUCCGUUCAUUGGAGUUUAUCAUG
GGAUCUUCUCGAUCUAACAAAAAAGACAAAGCUGCCACAACGCUAGAGAGCAUCUUCGGAUGCAGAGGCGGCAGCCUUCGAUGGCACGAUAGCGCCAACGUUCUCAACUAUGACACGCAAAACGCGUGCUCCGUUGAAUGGAGUUUAUCAUG
GGAUCUUCUCGAUCUAACAAAAAAGACAAAGCUGCCACAAAGCUUGAGAGCGUCUUCGGAUGCAGAGGCGGCAGCCUUCGGUGGCGCGAUAGCGCCAACGUUCUCAACUAUGACAGGCAAAACGCGUGCUCCGUUGAAUGGAGUUUCUCAUG
GGAUCUUCUCGAUCUAACAAAAAAGACAAAGCUGCCACAAAGCUUGAGAGCAUCUUCGGAUGCAGUGGCGGCAGCCUUCGGUGGCGCGAUAGCGUCAACGUUCUCAACUAUGACACGCAAAACGCGUGCUCCGUUGAAUGGAGUUUAUCAUG
GGAUCUUCUCGAUCUAACAAAAAAGACAAAGCUGCCACAAAGCUUGAGAGCAUCUUCGGAUGCAGAGGCGGCAGCCUUCGGUGGCGCGAUGGCGCCAACGUUCUCAACUAUGACACGCAAAACGCGUACUCCGUUGAAUGGAAUUUAUCAUG
GGAUCUUCUCGAUCUAACAAAAAAGACAAAGGUGCCACGAAGCUUGAGAGCCUUUUCGGAUGCAGAGGCGGCAGCCUUCGGUGGCGCGAUAGCGCCAACGUUCUCAACUAUGACACGCAAAACGCGUGCUGCGUUGAAUGCAGUUUAUCAUG
GGAUCUUCUCGAUCUAACAAAAAAGACAAAGGUGCCACAAAGCUUGAGAGCAUCUUGGGAUGCAGAGGCGGCAGCCUUCGGUGGCGCGAUAGCGCCAACGUACUCAACUAUGACACGCAACACGCGUGCUCCGUUGAAUGGAGUUUAUCAUG
GGAUCUUCUCGAUCUAACAAAAAAGACAAAGCUGACACAACGCUUGAGAGCAUCUAUGGAUGCAGAGGCGGCUGCCUUCGGUGGCGGGAUAGCGUUAACGUUCUCAACUAUGACACGCAAAACGCGUGCUCCGUUGAAUGGAGUUUAUCAUG
